The other results are listed elsewhere or left out. At the low end of the ranking the order means little. The protein was read in a cell extract, so binding may be indirect.

In this assay the target is T1, HNF4alpha8 (COS-7 nuclear extract) (UniProt P41235-5).
T1 sequence: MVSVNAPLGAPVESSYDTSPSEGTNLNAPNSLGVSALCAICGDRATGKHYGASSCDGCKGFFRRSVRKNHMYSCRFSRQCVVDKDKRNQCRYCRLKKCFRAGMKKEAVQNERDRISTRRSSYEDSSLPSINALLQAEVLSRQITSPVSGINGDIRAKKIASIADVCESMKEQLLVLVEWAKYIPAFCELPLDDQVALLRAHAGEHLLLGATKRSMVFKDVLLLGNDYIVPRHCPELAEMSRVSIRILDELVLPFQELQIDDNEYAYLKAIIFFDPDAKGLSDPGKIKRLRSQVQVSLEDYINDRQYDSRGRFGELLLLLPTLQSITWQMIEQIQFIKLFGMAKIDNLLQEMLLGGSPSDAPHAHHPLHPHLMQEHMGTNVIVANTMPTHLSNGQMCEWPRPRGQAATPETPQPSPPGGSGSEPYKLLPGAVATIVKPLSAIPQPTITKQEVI
The experiment in a line: protein-binding microarray. Particulars: COS-7 nuclear extract on double-stranded Agilent 4x180k PBM; binding buffer, salt, pH and temperature not given; high values mean tight binding; double strand, one strand shown; sequences stand for … in …GCCTAGGGAGATTAGAGTATCGGTCGA
Turning to TGCTGGTTTACAACATTCCTTTGTATTTTT, the binding signal (log2 normalized intensity) came to 1.26.

On to TAGACCTAGATAAGGGAGATGAAAGGGGCC, for which the binding signal (log2 normalized intensity) was -1.39. With GTGTGTGGTGTGTGTGTGTGTGTTTTGTGC, the binding signal (log2 normalized intensity) is 2.79.

For GGGGCATCCCTCGTAGGCAGGGCCAGATAA, the binding signal (log2 normalized intensity) was -1.3.

Turning to TCCTAAGGCCTTCAACTGATAAGAAGGGGC, the binding signal (log2 normalized intensity) is -1.35. With CCTGTCTCATCCTGTGACCAAGAATGCCTA the figure was -1.11; with ATAAGCCACGAGCCTGCCTGCTCCTCCTCG, -1.45. The value for CACCGTAAATCACATTGTTAGCAGAAACCA was -1.22. The value for GTGAGAAACATCCTGCCTAACCACCTGACC was -0.657; that for AAAGGGGCTAGGGCAAAGATCAAACATACA was 2.64; that for TCTTATCTCACTGGATGTGTACCTCATCTT was 1.14. In the case of ACCCTGTTGGTTTCTGGGATTTGTACAAGT, the binding signal (log2 normalized intensity) worked out at 1.92. The value for ACCTGATGTTTGGACAGTGTGACTCATCAA was 0.849; that for AGACCCTTATCAGTAGTTCTCCTTTCTGCC was 0.51. With ACCCATTATGGCCACTGTGTGTGTGTGTGT the figure was 2.82. The value for TTAAAGGCAAAGTCCAGAACCTGGAACCTA was 2.97; that for CGTTCCCCGAGCGAGCTCCGTGCGGGAGGC was -1.19. On to CAAGTATTTTCAGCCACCTTTATCTGATCA, for which the binding signal (log2 normalized intensity) was found to be 1.59. With AGAAAGCAGCCATAGACGATGTGTAAACAA the figure was -1.34; with ATATAATCATTCATGGGCCAAAGTTTGTTT, 2.25. With GCAAAGGTCACTCTTGCTATGCCTTAGCAA the figure was 0.78; with GTGCAAAGGTTAAAATGCCCTCACAGGTTC, 2.19; with AAAGTTCAGTTGCAAAGAACAGAATCCAGT, -0.777. With TTCATTGCACTTTGCCCTCTCTTCAGCACC the figure was 6.34; with GTATGGTAAGGTCGACCTTTAAACGTTTGC, 5.81. Consider ACTGAAAGGGAACCCTAATCCACATGCTAT, for which the binding signal (log2 normalized intensity) was -1.26. With ATCCCCGCCCCCAACGGGCCACGCCCTGCA the figure was 4.65; with CTTCCATATAACCCTTGAACCTTCTTCTTG, 4.81.

On to TAGCTCATTAAGCTTAGCGTTATCAAACCA, for which the binding signal (log2 normalized intensity) was -1.31. The value for CACTCATCCCTTGCACTGCTCAGGGTGGGG was 0.0631; that for GCCTGGACCTTGGAATGTCAAGATTGAGAC was 2.54; that for TAACCATGGGGGCTCAGGGCCTCTCTTCTT was -1.38. With CCTCTCCTCCATGGCCTGGGGCCCTACCTG the figure was -1.32; with AAAAAAAGAACACAGTGTAGAAGGCAAGGG, -1.23. With CGATAAGGAGGAAGGACACTTAGAGATAAG the figure was -1.35; with CTGGCCTCTGTGAAGTGGAGATAATAGGAG, -1.23. Turning to AGAATGTGGCCATTTTACTTGTCAAGGATC, the binding signal (log2 normalized intensity) was determined as 0.43. The value for TACAGGCGTGAGCCACCGCGCCCCGCCCCC was 6.17; that for TCATGAGTAGAGAGCAATCATGGGCCCACA was -1.37; that for CCTTTGGGAGCAGTGGGCATATCTTTTTAT was 1.53. CCTCCATGGCCTGGGGCCCTACCTGCACTT: the binding signal (log2 normalized intensity) was -1.2.

As to GCATAGGAAGTGGGGAAGAAGTGTTCCCCT, the binding signal (log2 normalized intensity) came to 0.597. The value for TCCTTATCTGTAGAAGGCAAAGCTTGGCCA was -1.34; that for ATTTGGAAAACATCATTCCGTGACTGAGCT was -1.29; that for CCGAATGTCCAGACTGTGCATACCAAGAAC was -1.36. For ACATTCCCTTCTTAGGGCAACATTCTTATC, the binding signal (log2 normalized intensity) worked out at 1.07. As for CCAGGGAGTGCAGCTGCAGGTGTGGGGGCG, the binding signal (log2 normalized intensity) was -0.342. The value for AAGGAGCAGATGGCTAGTGACTCAGAGCAT was -1.15; that for ATTGACATTTGGGGTCAGATAATTCTTTGC was 2.42; that for CTTCTCCGCGGCGGGCCCTCGACCTTTGCC was 5.8. For TTGGAACCTGAAAGAGCAACTACTCTCTCT, the binding signal (log2 normalized intensity) was -1.14. The value for CCGGCACGGTTTCGTGGGGACCCAGGCTTG was -1.34. The value for AGTGCTTTTCAATCTTATTTTTACTATGTG was 1.85. With CCCTTGCTTGACCCATTATGGCCACTGTGT the figure was 1.68; with ACCAAGTGAACTGTGACCTGATGACAAAGG, 2.25. Regarding TGACAACCAGGGCAGGGAAAGGGGGTTTGC, the binding signal (log2 normalized intensity) is -1.4. Consider CCCACCCCCCTGCTCCAGGCCGGCTTGCGT, for which the binding signal (log2 normalized intensity) was 4.32. Take AACCCTAATCCACATGCTATTATTTTCCAT: the binding signal (log2 normalized intensity) was -1.19. With AGAGAAGCACTGCAGTTTAAGTCTGAAGGC the figure was -1.4; with GGCTAGGCTGATAAGGAGGGTAACAATGCT, -1.45. The value for CTTTAAGTGTGGGGTGACTGACTTAACCCT was 2.08. The value for GCCAGGAAGCAATGGCCCTCAGCAAACCTT was -1.33; that for GGACTTTCAGGAATGCACCCTTTTGACCAC was 3.34. As to AGATGAGATGGTCAAAGGTTGATGGTATGT, the binding signal (log2 normalized intensity) worked out at 3.82. Regarding TGTACCTCTGGTGATTACCAGTTATTACGG, the binding signal (log2 normalized intensity) came out at 0.3. With CAACACCCAGGCTTATCTCACTCCAAAGGC the figure was -1.3; with CTCTCCCGCCTCTTGGCCTCCCCCTTCTGA, 4.44; with ATCCCAATTCACTGACACAAATTATGTCAG, -1.33. The value for ATTCCACTGACTGCTTTATCAGTGTAGTTT was 0.395. With CCTCTGCACCCCACCAAGGACTGGACCACC, the binding signal (log2 normalized intensity) amounted to 2.79. AATCTACAAATGTTTCAACATGACAGATAA: the binding signal (log2 normalized intensity) was -0.275.

With TCTTTCTCAAGCCAGACTGGTTTTTCTTGG, the binding signal (log2 normalized intensity) came to 1.31.

The record behind these values is article PMC10726135.
